These results are taken from US20240076343A1 (CEPHALON, published 2024).

Holding throughout (assay): cell-based or functional assay
For test [1], the target named is T1, high-affinity hIL-2 receptor (IL-2Rαβγ) on NK-92 cells (human, UniProt P01589 22-272; P14784 27-551; P31785 23-369).
T1 sequence 1: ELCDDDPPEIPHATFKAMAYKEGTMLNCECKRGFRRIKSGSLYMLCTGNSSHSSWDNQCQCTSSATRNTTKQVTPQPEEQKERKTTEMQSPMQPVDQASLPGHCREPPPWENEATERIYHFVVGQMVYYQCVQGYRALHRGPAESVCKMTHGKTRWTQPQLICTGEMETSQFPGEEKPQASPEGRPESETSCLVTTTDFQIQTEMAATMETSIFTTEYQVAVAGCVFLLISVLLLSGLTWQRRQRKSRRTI
T1 sequence 2: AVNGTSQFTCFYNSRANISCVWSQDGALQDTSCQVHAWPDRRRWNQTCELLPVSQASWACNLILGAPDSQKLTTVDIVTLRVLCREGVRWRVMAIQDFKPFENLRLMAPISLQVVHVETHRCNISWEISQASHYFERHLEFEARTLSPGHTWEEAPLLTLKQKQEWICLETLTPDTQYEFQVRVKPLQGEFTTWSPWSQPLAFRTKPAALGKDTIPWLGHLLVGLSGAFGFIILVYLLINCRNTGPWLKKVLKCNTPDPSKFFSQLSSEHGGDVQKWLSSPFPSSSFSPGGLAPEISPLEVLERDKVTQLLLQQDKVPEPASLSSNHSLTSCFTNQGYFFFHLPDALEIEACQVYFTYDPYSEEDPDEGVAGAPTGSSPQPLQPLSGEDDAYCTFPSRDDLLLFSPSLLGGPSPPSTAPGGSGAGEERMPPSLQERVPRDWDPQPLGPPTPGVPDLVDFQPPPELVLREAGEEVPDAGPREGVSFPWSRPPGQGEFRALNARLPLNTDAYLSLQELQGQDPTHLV
T1 sequence 3: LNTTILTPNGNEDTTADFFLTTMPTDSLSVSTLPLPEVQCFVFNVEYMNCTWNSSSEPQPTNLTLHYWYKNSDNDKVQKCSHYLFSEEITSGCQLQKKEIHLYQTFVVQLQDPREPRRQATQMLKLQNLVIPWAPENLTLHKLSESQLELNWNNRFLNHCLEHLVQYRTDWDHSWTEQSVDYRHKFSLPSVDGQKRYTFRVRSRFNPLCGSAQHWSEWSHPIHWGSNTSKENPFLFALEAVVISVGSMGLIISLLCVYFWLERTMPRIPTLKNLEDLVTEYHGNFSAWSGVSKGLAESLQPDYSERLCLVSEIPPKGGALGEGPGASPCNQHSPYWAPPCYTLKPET

Test [2] addresses T2, intermediate-affinity hIL-2 receptor (IL-2Rβγ) on TF1+IL-2Rβ cells (human, UniProt P14784 27-551; P31785 23-369).
T2 sequence 1: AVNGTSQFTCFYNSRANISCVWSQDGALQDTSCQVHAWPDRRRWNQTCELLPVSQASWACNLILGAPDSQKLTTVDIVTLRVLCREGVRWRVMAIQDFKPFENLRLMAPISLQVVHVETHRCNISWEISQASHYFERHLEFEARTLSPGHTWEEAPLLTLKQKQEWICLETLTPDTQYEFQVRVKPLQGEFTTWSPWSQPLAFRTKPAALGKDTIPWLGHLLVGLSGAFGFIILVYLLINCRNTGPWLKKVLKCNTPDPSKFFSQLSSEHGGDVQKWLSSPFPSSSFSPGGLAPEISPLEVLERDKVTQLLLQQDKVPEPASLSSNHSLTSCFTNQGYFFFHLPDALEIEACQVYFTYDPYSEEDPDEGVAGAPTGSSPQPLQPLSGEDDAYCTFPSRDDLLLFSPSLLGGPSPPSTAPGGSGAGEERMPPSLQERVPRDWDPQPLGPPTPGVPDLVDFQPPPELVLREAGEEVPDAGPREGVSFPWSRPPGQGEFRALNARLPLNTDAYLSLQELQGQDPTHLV
T2 sequence 2: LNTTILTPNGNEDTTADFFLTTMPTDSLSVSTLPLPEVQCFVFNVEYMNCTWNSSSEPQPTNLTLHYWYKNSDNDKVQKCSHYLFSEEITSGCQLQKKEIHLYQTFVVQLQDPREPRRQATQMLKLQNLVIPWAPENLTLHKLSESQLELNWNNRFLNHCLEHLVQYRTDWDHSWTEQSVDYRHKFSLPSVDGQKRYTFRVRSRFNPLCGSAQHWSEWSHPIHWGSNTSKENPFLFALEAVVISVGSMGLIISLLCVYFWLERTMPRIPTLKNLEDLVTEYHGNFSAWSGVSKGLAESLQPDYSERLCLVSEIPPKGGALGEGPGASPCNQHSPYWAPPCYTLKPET

For test [3], the target named is T2, intermediate-affinity hIL-2 receptor …. This is another data set of the same source.

B1: 1H3-hIgG4-L6-hIL-2 (D20A/R38E/C125A) (other)
heavy: EVQLVESGGGLVQPGRSLKLSCAVSGFTFSDYAMAWVRQAPKKGLEWVATISYDGSRTYYRDSVKGRFTISRDNAKITLYLQMDSLRSEDTATYYCARHGSGYFDYWGQGVMVTVSSASTKGPSVFPLAPCSRSTSESTAALGCLVKDYFPEPVTVSWNSGALTSGVHTFPAVLQSSGLYSLSSVVTVPSSSLGTKTYTCNVDHKPSNTKVDKRV[not shown - human IgG4 Fc with S228P (EU numbers)]SGGGGSAPTSSSTKKTQLQLEHLLLALQMILNGINNYKNPKLTEMLTFKFYMPKKATELKHLQCLEEELKPLEEVLNLAQSKNFHLRPRDLISNINVIVLELKGSETTFMCEYADETATIVEFLNRWITFAQSIISTLT
light: DTVLTQSPALAVSPGERVTISCRASESVRTGVHWYQQKPGQQPKLLIYGASNLESGVPARFSGSGSGTDFTLTIDPVEADDTATYFCQQSWNDPFTFGSGTKLEIKRTVAAPSVFIFPPSDEQLKSGTASVVCLLNNFYPREAKVQWKVDNALQSGNSQESVTEQDSKDSTYSLSSTLTLSKADYEKHKVYACEVTHQGLSSPVTKSFNRGEC
Take B1: in test [1], the “Agonistic Activity (NK-92)” value turned out to be 20% and the “Fold change from rhIL-2 (NK-92)” value was > 10000 fold. Besides, in test [2], the “Agonistic Activity (TF1 + IL-2Rβ)” value was determined as 40% and the “Fold change from rhIL-2 (TF1 + IL-2Rβ)” value worked out at 6440 fold. Also, the “Fold decrease from rhIL-2 (TF1 + IL-2Rβ + hPD-1)” value (shortened to “Fold decrease”) in test [3] came out at 4710 fold.

B2: 1H3-hIgG4-L6-hIL-2 (T3A/D20A/R38E/C125A) (other)
heavy: EVQLVESGGGLVQPGRSLKLSCAVSGFTFSDYAMAWVRQAPKKGLEWVATISYDGSRTYYRDSVKGRFTISRDNAKITLYLQMDSLRSEDTATYYCARHGSGYFDYWGQGVMVTVSSASTKGPSVFPLAPCSRSTSESTAALGCLVKDYFPEPVTVSWNSGALTSGVHTFPAVLQSSGLYSLSSVVTVPSSSLGTKTYTCNVDHKPSNTKVDKRV[not shown - human IgG4 Fc with S228P (EU numbers)]SGGGGSAPASSSTKKTQLQLEHLLLALQMILNGINNYKNPKLTEMLTFKFYMPKKATELKHLQCLEEELKPLEEVLNLAQSKNFHLRPRDLISNINVIVLELKGSETTFMCEYADETATIVEFLNRWITFAQSIISTLT
light: DTVLTQSPALAVSPGERVTISCRASESVRTGVHWYQQKPGQQPKLLIYGASNLESGVPARFSGSGSGTDFTLTIDPVEADDTATYFCQQSWNDPFTFGSGTKLEIKRTVAAPSVFIFPPSDEQLKSGTASVVCLLNNFYPREAKVQWKVDNALQSGNSQESVTEQDSKDSTYSLSSTLTLSKADYEKHKVYACEVTHQGLSSPVTKSFNRGEC
Take B2: in test [1], the “Agonistic Activity (NK-92)” value worked out at 20% and the “Fold change from rhIL-2 (NK-92)” value was > 10000 fold. The “Fold change from rhIL-2 (TF1 + IL-2Rβ)” value in test [2] is > 10000 fold. Besides, the “Fold decrease” value in test [3] was determined as 4630 fold.

B3: 1H3-hIgG1-L6-hIL-2 (F42A) (other)
heavy: EVQLVESGGGLVQPGRSLKLSCAVSGFTFSDYAMAWVRQAPKKGLEWVATISYDGSRTYYRDSVKGRFTISRDNAKITLYLQMDSLRSEDTATYYCARHGSGYFDYWGQGVMVTVSS[not shown - about 450 residues with a human IgG1 Fc and changes]
light: DTVLTQSPALAVSPGERVTISCRASESVRTGVHWYQQKPGQQPKLLIYGASNLESGVPARFSGSGSGTDFTLTIDPVEADDTATYFCQQSWNDPFTFGSGTKLEIKRTVAAPSVFIFPPSDEQLKSGTASVVCLLNNFYPREAKVQWKVDNALQSGNSQESVTEQDSKDSTYSLSSTLTLSKADYEKHKVYACEVTHQGLSSPVTKSFNRGEC
Regarding B3, the “Fold change from rhIL-2 (NK-92)” value in test [1] was 0 fold. Moreover, the “Fold change from rhIL-2 (TF1 + IL-2Rβ)” value in test [2] is ~0 fold. For the same molecule, in test [3], the “Fold decrease” value is ~0 fold.

B4: 1H3-hIgG1-L6-hIL-2 (H16A) (other)
heavy: EVQLVESGGGLVQPGRSLKLSCAVSGFTFSDYAMAWVRQAPKKGLEWVATISYDGSRTYYRDSVKGRFTISRDNAKITLYLQMDSLRSEDTATYYCARHGSGYFDYWGQGVMVTVSS[not shown - about 450 residues with a human IgG1 Fc and changes]
light: DTVLTQSPALAVSPGERVTISCRASESVRTGVHWYQQKPGQQPKLLIYGASNLESGVPARFSGSGSGTDFTLTIDPVEADDTATYFCQQSWNDPFTFGSGTKLEIKRTVAAPSVFIFPPSDEQLKSGTASVVCLLNNFYPREAKVQWKVDNALQSGNSQESVTEQDSKDSTYSLSSTLTLSKADYEKHKVYACEVTHQGLSSPVTKSFNRGEC
As for B4, the “Fold change from rhIL-2 (NK-92)” value in test [1] turned out to be 0 fold. Further, in test [2], the “Fold change from rhIL-2 (TF1 + IL-2Rβ)” value is ~0 fold. Moreover, in test [3], the “Fold decrease” value is ~4 fold.

B5: 1H3-hIgG1-L6-hIL-2 (D20A/R38E/C125A) (other)
heavy: EVQLVESGGGLVQPGRSLKLSCAVSGFTFSDYAMAWVRQAPKKGLEWVATISYDGSRTYYRDSVKGRFTISRDNAKITLYLQMDSLRSEDTATYYCARHGSGYFDYWGQGVMVTVSS[not shown - human IgG1 constant region]SGGGGSAPTSSSTKKTQLQLEHLLLALQMILNGINNYKNPKLTEMLTFKFYMPKKATELKHLQCLEEELKPLEEVLNLAQSKNFHLRPRDLISNINVIVLELKGSETTFMCEYADETATIVEFLNRWITFAQSIISTLT
light: DTVLTQSPALAVSPGERVTISCRASESVRTGVHWYQQKPGQQPKLLIYGASNLESGVPARFSGSGSGTDFTLTIDPVEADDTATYFCQQSWNDPFTFGSGTKLEIKRTVAAPSVFIFPPSDEQLKSGTASVVCLLNNFYPREAKVQWKVDNALQSGNSQESVTEQDSKDSTYSLSSTLTLSKADYEKHKVYACEVTHQGLSSPVTKSFNRGEC
Turning to B5, in test [1], the “Agonistic Activity (NK-92)” value is 80% and the “Fold change from rhIL-2 (NK-92)” value was ~2350 fold. Moreover, in test [2], the “Agonistic Activity (TF1 + IL-2Rβ)” value came to 60% and the “Fold change from rhIL-2 (TF1 + IL-2Rβ)” value was ~2160 fold. Moreover, in test [3], the “Fold decrease” value came to 3340 fold.

B6: 1H3-hIgG1-L6-hIL-2 (T3A/D20A/R38E) (other)
heavy: EVQLVESGGGLVQPGRSLKLSCAVSGFTFSDYAMAWVRQAPKKGLEWVATISYDGSRTYYRDSVKGRFTISRDNAKITLYLQMDSLRSEDTATYYCARHGSGYFDYWGQGVMVTVSS[not shown - human IgG1 constant region]SGGGGSAPASSSTKKTQLQLEHLLLALQMILNGINNYKNPKLTEMLTFKFYMPKKATELKHLQCLEEELKPLEEVLNLAQSKNFHLRPRDLISNINVIVLELKGSETTFMCEYADETATIVEFLNRWITFCQSIISTLT
light: DTVLTQSPALAVSPGERVTISCRASESVRTGVHWYQQKPGQQPKLLIYGASNLESGVPARFSGSGSGTDFTLTIDPVEADDTATYFCQQSWNDPFTFGSGTKLEIKRTVAAPSVFIFPPSDEQLKSGTASVVCLLNNFYPREAKVQWKVDNALQSGNSQESVTEQDSKDSTYSLSSTLTLSKADYEKHKVYACEVTHQGLSSPVTKSFNRGEC
B6: in test [1], the “Agonistic Activity (NK-92)” value worked out at 80% and the “Fold change from rhIL-2 (NK-92)” value turned out to be 392 fold. Also, in test [2], the “Agonistic Activity (TF1 + IL-2Rβ)” value amounted to 60% and the “Fold change from rhIL-2 (TF1 + IL-2Rβ)” value stood at 186 fold. In addition, in test [3], the “Fold decrease” value was 513 fold.

B7: 1H3-hIgG1-L6-hIL-2 (H16A/F42A) (other)
heavy: EVQLVESGGGLVQPGRSLKLSCAVSGFTFSDYAMAWVRQAPKKGLEWVATISYDGSRTYYRDSVKGRFTISRDNAKITLYLQMDSLRSEDTATYYCARHGSGYFDYWGQGVMVTVSS[not shown - about 450 residues with a human IgG1 Fc and changes]
light: DTVLTQSPALAVSPGERVTISCRASESVRTGVHWYQQKPGQQPKLLIYGASNLESGVPARFSGSGSGTDFTLTIDPVEADDTATYFCQQSWNDPFTFGSGTKLEIKRTVAAPSVFIFPPSDEQLKSGTASVVCLLNNFYPREAKVQWKVDNALQSGNSQESVTEQDSKDSTYSLSSTLTLSKADYEKHKVYACEVTHQGLSSPVTKSFNRGEC
Take B7: the “Fold change from rhIL-2 (NK-92)” value in test [1] was found to be 1 fold. Besides, the “Fold change from rhIL-2 (TF1 + IL-2Rβ)” value in test [2] is ~0 fold. The “Fold decrease” value in test [3] was ~2 fold.
